Assay results published in the supplement of paper PMC10369915.
Some of the results follow. No stated cut-off is given here; in the data, active = 3.2 or more and inactive = the rest. Most of these values are background signal.

B1: SGSH_Y174 (peptide)
chain: RPFFLYVAFHD
B2: SGSH_Y174_D179N (peptide)
chain: RPFFLYVAFHN
B3: SGSH_Y240_D235V (peptide)
chain: VLAAQYTTVGR
B4: SGSH_Y240_R245H (peptide)
chain: DLAAQYTTVGH
B5: SGSH_Y89_H84Y (peptide)
chain: YQNGMYGLHQD
B6: SH2D1A_Y29_D33Y (peptide)
chain: GLDGSYLLRYS
B7: SH2D1A_Y29_G27S (peptide)
chain: GLDSSYLLRDS
B8: SH2D1A_Y7_H8D (peptide)
chain: DAVAVYDGKIS
B9: SH2D1B_Y127_V130I (peptide)
chain: NSNSDYVDILP
B10: SH3PXD2B_Y45 (peptide)
chain: AIYRRYSKFFD
B11: SH3PXD2B_Y45_R43W (peptide)
chain: AIYWRYSKFFD
B12: SHB_Y297_G293S (peptide)
chain: KSIQLYDTPYE
B13: SHB_Y297_G293S_YF (peptide)
chain: KSIQLYDTPFE
B14: SHC1_Y315 (peptide)
chain: LRFKQYLRNPP
B15: SHC4_Y403 (peptide)
chain: TEQMAYCPIQC
B16: SHC4_Y403_Q400H (peptide)
chain: TEHMAYCPIQC
B17: SHH_Y253_V254M (peptide)
chain: AKKVFYMIETR
B18: SI_Y1233_C1229Y (peptide)
chain: LYRYGYANTSE
B19: SIPA1L3_Y1265 (peptide)
chain: KGEPQYSSHSS

These binders were tested against SHP2 C-SH2 domain E139D (assay: enrichment score (SH2-bound / input frequency) (ratio); bacterial display of known human phosphotyrosine sites (pTyr-Var adds point mutants) read by sequencing; higher = stronger binding; tyrosines were phosphorylated by kinases first). Settings: peptide library: pTyr-Var.
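Further: displayed peptides selected on beads carrying the immobilized SH2 domain, with library peptides lacking any tyrosine serving as negative controls.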

Row | Binder | enrichment score
1 | B1 | inactive: 0.391
2 | B2 | inactive: 0.322
3 | B3 | inactive: 0.703
4 | B4 | inactive: 0.777
5 | B5 | inactive: 0.865
6 | B6 | inactive: 0.788
7 | B7 | inactive: 0.677
8 | B8 | inactive: 0.905
9 | B9 | inactive: 0.63
10 | B10 | inactive: 0.24
11 | B11 | inactive: 0.887
12 | B12 | inactive: 1.13
13 | B13 | inactive: 0.967
14 | B14 | inactive: 0.71
15 | B15 | inactive: 0.659
16 | B16 | inactive: 0.854
17 | B17 | inactive: 3
18 | B18 | inactive: 1.14
19 | B19 | inactive: 0.592

The binders below were run against SHP2 C-SH2 domain wild-type in the same assay as above. Settings: peptide library: pTyr-Var.

Row | Binder | enrichment score
20 | B1 | inactive: 0.272
21 | B2 | inactive: 0.564
22 | B3 | inactive: 1.83
23 | B4 | inactive: 1.52
24 | B5 | inactive: 0.795
25 | B6 | inactive: 0.831
26 | B7 | inactive: 0.694
27 | B8 | inactive: 0.616
28 | B9 | inactive: 0.624
29 | B10 | inactive: 0.325
30 | B11 | inactive: 1.02
31 | B12 | inactive: 0.831
32 | B13 | inactive: 0.856
33 | B14 | inactive: 0.599
34 | B15 | inactive: 0.803
35 | B16 | inactive: 0.884
36 | B17 | active: 3.28
37 | B18 | inactive: 1.13
38 | B19 | inactive: 0.467

These binders were tested against SHP2 N-SH2 domain L43F in the same assay as above. Settings: peptide library: pTyr-Var.

Row | Binder | enrichment score
39 | B1 | inactive: 0.755
40 | B2 | inactive: 0.408
41 | B3 | inactive: 1.16
42 | B4 | inactive: 1.05
43 | B5 | inactive: 0.829
44 | B6 | inactive: 0.732
45 | B7 | inactive: 0.77
46 | B8 | inactive: 0.734
47 | B9 | inactive: 0.806
48 | B10 | inactive: 0.343
49 | B11 | inactive: 1.03
50 | B12 | inactive: 0.975
51 | B13 | inactive: 1.15
52 | B14 | inactive: 0.646
53 | B15 | inactive: 0.701
54 | B16 | inactive: 0.727
55 | B17 | inactive: 2.89
56 | B18 | inactive: 0.895
57 | B19 | inactive: 0.539

These binders were tested against SHP2 N-SH2 domain T42A in the same assay as above. Settings: peptide library: pTyr-Var.

Row | Binder | enrichment score
58 | B1 | inactive: 0.351
59 | B2 | inactive: 0.374
60 | B3 | inactive: 1.35
61 | B4 | inactive: 2.01
62 | B5 | inactive: 0.711
63 | B6 | inactive: 0.941
64 | B7 | inactive: 0.61
65 | B8 | inactive: 0.877
66 | B9 | inactive: 0.614
67 | B10 | inactive: 0.338
68 | B11 | inactive: 1
69 | B12 | inactive: 0.6
70 | B13 | inactive: 0.79
71 | B14 | inactive: 0.696
72 | B15 | inactive: 0.879
73 | B16 | inactive: 0.729
74 | B17 | inactive: 2.46
75 | B18 | inactive: 1.54
76 | B19 | inactive: 0.618

The binders below were run against SHP2 N-SH2 domain T52S in the same assay as above. Settings: peptide library: pTyr-Var.

Row | Binder | enrichment score
77 | B1 | inactive: 0.358
78 | B2 | inactive: 0.358
79 | B3 | inactive: 1.07
80 | B4 | inactive: 1.09
81 | B5 | inactive: 0.818
82 | B6 | inactive: 1.11
83 | B7 | inactive: 0.658
84 | B8 | inactive: 0.931
85 | B9 | inactive: 0.882
86 | B10 | inactive: 0.329
87 | B11 | inactive: 0.707
88 | B12 | inactive: 0.781
89 | B13 | inactive: 1
90 | B14 | inactive: 0.67
91 | B15 | inactive: 0.723
92 | B16 | inactive: 0.718
93 | B17 | inactive: 2.82
94 | B18 | inactive: 0.9
95 | B19 | inactive: 0.524

These binders were tested against SHP2 N-SH2 domain wild-type in the same assay as above. Settings: peptide library: pTyr-Var.

Row | Binder | enrichment score
96 | B1 | inactive: 0.414
97 | B2 | inactive: 0.416
98 | B3 | inactive: 0.97
99 | B4 | inactive: 0.757
100 | B5 | inactive: 0.662
101 | B6 | inactive: 0.947
102 | B7 | inactive: 0.663
103 | B8 | inactive: 1.21
104 | B9 | inactive: 0.687
105 | B10 | inactive: 0.245
106 | B11 | inactive: 1.12
107 | B12 | inactive: 0.835
108 | B13 | inactive: 1.05
109 | B14 | inactive: 0.57
110 | B15 | inactive: 0.859
111 | B16 | inactive: 1.02
112 | B17 | inactive: 2.99
113 | B18 | inactive: 1.11
114 | B19 | inactive: 0.731
